# Assay results as given in the supplement of paper PMC8728848.
# This is one part of the list.
# B1: Epa1to9 (Candida glabrata) (protein)
# chain: MGSSHHHHHHSSGLVPRGSHMTSSNDISLASKDPTTFPLGCSPDITTPKKGLSMELYSYDFRKKGSYPCWDAAYLDPNYPRTGYKSHRLLAKVDGVTGNINFYYHATKGCTPQLGHLPASYNYPKPLTMTNFTMLLYGYFRPKVTGFHTFTISADDLLFVNFGAGNAFDCCRRDSSADHFGNYQAYAIWGSKTAKDELTVHLDAGVYYPIRLFYNNRDYHGALSFTFKTESNENTVSDFSEYFFSLDDTEEGCPGLISYD
# How the values were obtained:
# Test in all cases: glycan array binding signal (z-score within array); higher = stronger binding
# Conditions in all cases: glycan notation: IUPAC condensed, linker removed
# Fuc(a1-2)Gal = biological target: Fuc(a1-2)Gal
# Procedure, shortened: (§1)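 Glycan array binding is given as a within-array Z-score, which can be read as non-binding when negative. The arrays, 3228 of them, came from the Consortium for Functional Glycomics database and were retained only where the protein sequence was available. Z-scores were averaged across arrays of the same protein sequence at different concentrations or buffers and across linkers.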
# Fuc(a1-2)Gal(b1-3)GalNAc = biological target: Fuc(a1-2)Gal(b1-3)GalNAc
# Procedure, shortened: as §1
# [1] = biological target: Fuc(a1-2)Gal(b1-3)GalNAc(a1-3)[Fuc(a1-2)]Gal(b1-4)Glc
# Procedure, shortened: as §1
# [2] = biological target: Fuc(a1-2)Gal(b1-3)GalNAc(a1-3)[Fuc(a1-2)]Gal(b1-4)GlcNAc
# Procedure, shortened: as §1
# [3] = biological target: Fuc(a1-2)Gal(b1-3)GalNAc(b1-3)Gal
# Procedure, shortened: as §1
# [4] = biological target: Fuc(a1-2)Gal(b1-3)GalNAc(b1-3)Gal(a1-4)Gal(b1-4)Glc
# Procedure, shortened: as §1
# [5] = biological target: Fuc(a1-2)Gal(b1-3)GalNAc(b1-4)[Neu5Ac(a2-3)]Gal(b1-4)Glc
# Procedure, shortened: as §1
# Fuc(a1-2)Gal(b1-3)GlcNAc = biological target: Fuc(a1-2)Gal(b1-3)GlcNAc
# Procedure, shortened: as §1
# [6] = biological target: Fuc(a1-2)Gal(b1-3)GlcNAc(b1-2)Man(a1-3)[Fuc(a1-2)Gal(b1-3)GlcNAc(b1-2)Man(a1-6)]Man(b1-4)GlcNAc(b1-4)GlcNAc
# Procedure, shortened: as §1
# [7] = biological target: Fuc(a1-2)Gal(b1-3)GlcNAc(b1-2)Man(a1-3)[Fuc(a1-2)Gal(b1-3)GlcNAc(b1-2)Man(a1-6)]Man(b1-4)GlcNAc(b1-4)[Fuc(a1-6)]GlcNAc
# Procedure, shortened: as §1
# [8] = biological target: Fuc(a1-2)Gal(b1-3)GlcNAc(b1-3)Gal(b1-4)Glc
# Procedure, shortened: as §1
# [9] = biological target: Fuc(a1-2)Gal(b1-3)GlcNAc(b1-3)GalNAc
# Procedure, shortened: as §1
# [10] = biological target: Fuc(a1-2)Gal(b1-3)GlcNAc(b1-3)[Fuc(a1-2)Gal(b1-3)GlcNAc(b1-6)]GalNAc
# Procedure, shortened: as §1
# [11] = biological target: Fuc(a1-2)Gal(b1-3)GlcNAc(b1-3)[Gal(b1-4)GlcNAc(b1-6)]Gal(b1-4)Glc
# Procedure, shortened: as §1
# [12] = biological target: Fuc(a1-2)Gal(b1-3)GlcNAc(b1-3)[Neu5Ac(a2-6)Gal(b1-4)GlcNAc(b1-6)]Gal(b1-4)Glc
# Procedure, shortened: as §1
# [13] = biological target: Fuc(a1-2)Gal(b1-3)GlcNAc6S
# Procedure, shortened: as §1
# [14] = biological target: Fuc(a1-2)Gal(b1-3)[Fuc(a1-4)]GlcNAc
# Procedure, shortened: as §1
# [15] = biological target: Fuc(a1-2)Gal(b1-3)[Fuc(a1-4)]GlcNAc(b1-2)Man(a1-3)[Fuc(a1-2)Gal(b1-3)[Fuc(a1-4)]GlcNAc(b1-2)Man(a1-3)]Man(b1-4)GlcNAc(b1-4)GlcNAc
# Procedure, shortened: as §1
# [16] = biological target: Fuc(a1-2)Gal(b1-3)[Fuc(a1-4)]GlcNAc(b1-2)Man(a1-3)[Fuc(a1-2)Gal(b1-3)[Fuc(a1-4)]GlcNAc(b1-2)Man(a1-6)]Man(b1-4)GlcNAc(b1-4)[Fuc(a1-6)]GlcNAc(b1-4)[Fuc(a1-6)]GlcNAc
# Procedure, shortened: as §1
# [17] = biological target: Fuc(a1-2)Gal(b1-3)[Fuc(a1-4)]GlcNAc(b1-3)[Fuc(a1-3)[Gal(b1-4)]GlcNAc(b1-6)]Gal(b1-4)Glc
# Procedure, shortened: as §1
# [18] = biological target: Fuc(a1-2)Gal(b1-3)[Fuc(a1-4)]GlcNAc(b1-3)[Gal(b1-4)GlcNAc(b1-6)]Gal(b1-4)Glc
# Procedure, shortened: as §1
# [19] = biological target: Fuc(a1-2)Gal(b1-4)Fuc(a1-3)]GlcNAc(b1-2)Man(a1-3)[Fuc(a1-2)Gal(b1-4)[Fuc(a1-3)]GlcNAc(b1-2)Man(a1-6)]Man(b1-4)GlcNAc(b1-4)GlcNAc
# Procedure, shortened: as §1
# Fuc(a1-2)Gal(b1-4)Glc = biological target: Fuc(a1-2)Gal(b1-4)Glc
# Procedure, shortened: as §1
# Fuc(a1-2)Gal(b1-4)Glc6S = biological target: Fuc(a1-2)Gal(b1-4)Glc6S
# Procedure, shortened: as §1
# Fuc(a1-2)Gal(b1-4)GlcNAc = biological target: Fuc(a1-2)Gal(b1-4)GlcNAc
# Procedure, shortened: as §1
# [20] = biological target: Fuc(a1-2)Gal(b1-4)GlcNAc(b1-2)Man
# Procedure, shortened: as §1
# [21] = biological target: Fuc(a1-2)Gal(b1-4)GlcNAc(b1-2)Man(a1-3)[Fuc(a1-2)Gal(b1-4)GlcNAc(b1-2)Man(a1-6)]Man(b1-4)GlcNAc(b1-4)GlcNAc
# Procedure, shortened: as §1
# [22] = biological target: Fuc(a1-2)Gal(b1-4)GlcNAc(b1-2)Man(a1-3)[Fuc(a1-2)Gal(b1-4)GlcNAc(b1-2)Man(a1-6)]Man(b1-4)GlcNAc(b1-4)[Fuc(a1-6)]GlcNAc
# Procedure, shortened: as §1
# [23] = biological target: Fuc(a1-2)Gal(b1-4)GlcNAc(b1-2)[Fuc(a1-2)Gal(b1-4)GlcNAc(b1-4)]Man(a1-3)[Fuc(a1-2)Gal(b1-4)GlcNAc(b1-2)Man(a1-6)]Man(b1-4)GlcNAc(b1-4)GlcNAc
# Procedure, shortened: as §1
# [24] = biological target: Fuc(a1-2)Gal(b1-4)GlcNAc(b1-3)Gal(b1-4)GlcNAc
# Procedure, shortened: as §1
# [25] = biological target: Fuc(a1-2)Gal(b1-4)GlcNAc(b1-3)Gal(b1-4)GlcNAc(b1-2)Man(a1-3)[Fuc(a1-2)Gal(b1-4)GlcNAc(b1-3)Gal(b1-4)GlcNAc(b1-2)Man(a1-6)]Man(b1-4)GlcNAc(b1-4)GlcNAc
# Procedure, shortened: as §1
# [26] = biological target: Fuc(a1-2)Gal(b1-4)GlcNAc(b1-3)Gal(b1-4)GlcNAc(b1-3)Gal(b1-4)GlcNAc
# Procedure, shortened: as §1
# [27] = biological target: Fuc(a1-2)Gal(b1-4)GlcNAc(b1-3)GalNAc
# Procedure, shortened: as §1
# [28] = biological target: Fuc(a1-2)Gal(b1-4)GlcNAc(b1-3)[Fuc(a1-2)Gal(b1-4)GlcNAc(b1-6)]GalNAc
# Procedure, shortened: as §1
# [29] = biological target: Fuc(a1-2)Gal(b1-4)GlcNAc(b1-3)[Fuc(a1-3)[Gal(b1-4)]GlcNAc(b1-6)]Gal(b1-4)Glc
# Procedure, shortened: as §1
# [30] = biological target: Fuc(a1-2)Gal(b1-4)GlcNAc(b1-6)GalNAc
# Procedure, shortened: as §1
# [31] = biological target: Fuc(a1-2)Gal(b1-4)GlcNAc6S
# Procedure, shortened: as §1
binder,measurement,setting,value
B1,glycan array binding signal (z-score),Fuc(a1-2)Gal,-0.439
same,glycan array binding signal (z-score),Fuc(a1-2)Gal(b1-3)GalNAc,-0.3
same,glycan array binding signal (z-score),[1],-0.35
same,glycan array binding signal (z-score),[2],-0.188
same,glycan array binding signal (z-score),[3],-0.298
same,glycan array binding signal (z-score),[4],-0.308
same,glycan array binding signal (z-score),[5],-0.155
same,glycan array binding signal (z-score),Fuc(a1-2)Gal(b1-3)GlcNAc,-0.347
same,glycan array binding signal (z-score),[6],-0.355
same,glycan array binding signal (z-score),[7],-0.333
same,glycan array binding signal (z-score),[8],-0.354
same,glycan array binding signal (z-score),[9],-0.349
same,glycan array binding signal (z-score),[10],-0.146
same,glycan array binding signal (z-score),[11],-0.07
same,glycan array binding signal (z-score),[12],-0.223
same,glycan array binding signal (z-score),[13],-0.286
same,glycan array binding signal (z-score),[14],-0.354
same,glycan array binding signal (z-score),[15],-0.263
same,glycan array binding signal (z-score),[16],-0.309
same,glycan array binding signal (z-score),[17],-1.69
same,glycan array binding signal (z-score),[18],0.003
same,glycan array binding signal (z-score),[19],-0.268
same,glycan array binding signal (z-score),Fuc(a1-2)Gal(b1-4)Glc,-0.307
same,glycan array binding signal (z-score),Fuc(a1-2)Gal(b1-4)Glc6S,-0.22
same,glycan array binding signal (z-score),Fuc(a1-2)Gal(b1-4)GlcNAc,-0.322
same,glycan array binding signal (z-score),[20],-0.323
same,glycan array binding signal (z-score),[21],-0.329
same,glycan array binding signal (z-score),[22],-0.297
same,glycan array binding signal (z-score),[23],-0.356
same,glycan array binding signal (z-score),[24],-0.347
same,glycan array binding signal (z-score),[25],-0.308
same,glycan array binding signal (z-score),[26],-0.411
same,glycan array binding signal (z-score),[27],-0.34
same,glycan array binding signal (z-score),[28],-0.282
same,glycan array binding signal (z-score),[29],-0.289
same,glycan array binding signal (z-score),[30],-0.291
same,glycan array binding signal (z-score),[31],0.019
